Experimental findings from PubChem BioAssay AID488969 (Vanderbilt High Throughput Screening Facility, 2010) are described below.

Over roughly 110,000 compounds, “z-score” has its median near -0.1; the highest 2% begin near 2. Some of the results follow. Calls of active or inactive are those of the source.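 Rule for the calls: active = z-score in the third read window above 3 or below -3; inactive = the rest.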

The assay has as its target Metabotropic glutamate receptor 8 (Rattus norvegicus) (UniProt P70579). As to the kind of experiment: rat mGluR8 modulators via GIRK flux, primary screen, cell-based, thallium flux, HTS (AID 488969). The following applies: HEK293 rat mGluR8, GIRK (G protein-gated inwardly rectifying potassium channel) thallium flux, FluoZin2; at 10 µM; stronger effect = higher value; submaximal glutamate (EC20) added with thallium.
Chain of UniProt P70579 (P70579 whole entry, looked up): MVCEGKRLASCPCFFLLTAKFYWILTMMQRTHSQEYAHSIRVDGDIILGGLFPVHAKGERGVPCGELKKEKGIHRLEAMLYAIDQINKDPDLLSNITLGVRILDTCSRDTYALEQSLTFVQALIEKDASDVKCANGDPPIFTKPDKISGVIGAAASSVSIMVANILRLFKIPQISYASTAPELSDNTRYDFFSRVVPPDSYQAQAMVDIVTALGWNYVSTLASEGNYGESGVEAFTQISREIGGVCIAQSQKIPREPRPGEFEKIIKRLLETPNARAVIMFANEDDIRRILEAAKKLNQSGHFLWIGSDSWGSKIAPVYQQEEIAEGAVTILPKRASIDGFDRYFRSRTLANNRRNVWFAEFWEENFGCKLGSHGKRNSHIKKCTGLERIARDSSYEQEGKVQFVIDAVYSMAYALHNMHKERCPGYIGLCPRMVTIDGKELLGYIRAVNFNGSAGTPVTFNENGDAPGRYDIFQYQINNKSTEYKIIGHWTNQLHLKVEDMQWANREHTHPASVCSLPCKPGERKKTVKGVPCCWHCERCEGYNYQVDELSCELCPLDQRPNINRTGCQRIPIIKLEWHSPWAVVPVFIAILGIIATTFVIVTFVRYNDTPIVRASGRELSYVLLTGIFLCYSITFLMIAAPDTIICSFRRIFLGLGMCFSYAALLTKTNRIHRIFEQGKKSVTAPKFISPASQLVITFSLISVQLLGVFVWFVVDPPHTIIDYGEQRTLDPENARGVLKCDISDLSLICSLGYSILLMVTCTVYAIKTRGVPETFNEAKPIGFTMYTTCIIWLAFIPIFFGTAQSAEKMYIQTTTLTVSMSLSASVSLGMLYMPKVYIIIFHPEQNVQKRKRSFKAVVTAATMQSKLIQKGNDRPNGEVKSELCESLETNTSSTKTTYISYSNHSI
Take `COc1ccc2[nH]c(=O)c(CN(C(=O)c3cccnc3)c3ccc(C)cc3)cc2c1`: the z-score is -0.109.
Compound `CCCCN(CC)Cc1ccc(CNC(=O)Nc2ccc(OC)cc2OC)o1` registered a z-score of -0.146.
The result for `Cc1nccn1Cc1cccc2ccccc12` reads 0.476; that for `Cn1c(=O)oc2cc(S(=O)(=O)NCc3ccco3)ccc21`, 0.202; that for `Cn1c2c(c(=O)n(C)c1=O)CN(Cc1ccco1)CN2`, -0.26.
In the case of `O=c1c2cnn(-c3ccc(F)cc3)c2ncn1Cc1ccccc1` it was -1.18.
The result for `COc1ccccc1-c1nnc(SCC(=O)Nc2c(Cl)cccc2Cl)o1` reads 0.304; that for `CC(=O)Nc1ccc2c(c1)nc1n2CCSC1`, -0.406.
`C/C(NC(=O)c1ccccc1)=C1/C(=O)CC2C1C2(C)C` (stereo not given) yielded a z-score of -0.669.
`Cc1cc(C)nc(SCCC(=O)Nc2cccc3ccccc23)n1` came in with a z-score of -0.213.
`Cc1ccc2oc(-c3ccc(NC(=O)CC(C)C)cc3)nc2c1` yielded a z-score of -0.144.
The result for `O=C(Nc1cccnc1)c1scc2c1OCCO2` reads -0.573; that for `CC(C)CCNC(=O)C(=O)NCCC1=CCCCC1`, 0.86; that for `CC1Cc2nc(SCC(=O)N3CCN(c4ccccc4)CC3)n(C)c(=O)c2S1` (stereo not given), -0.938.
The result for `CS(=O)(=O)N(CC(=O)N1CCCCC1)c1ccc2c(c1)OCO2` reads 0.403; that for `Cc1csc(SCC(=O)Nc2ncc(Cl)c(C)c2Cl)n1`, 0.185.
The result for `COc1ccc(CC(=S)N2CCOCC2)cc1OC` reads -0.316.
As to `Cc1c(CCO)c(=O)[nH]n1C(=O)c1c(F)cccc1F`, the z-score is -0.0409.
The result for `Cc1nnc(N2C(=O)c3cccc4cccc(c34)C2=O)s1` reads -0.355; that for `Cc1ccc(C)c(N2C(=O)c3cc(N4CCOCC4)c([N+](=O)[O-])cc3C2=O)c1`, -0.109.
The compound `O=C1c2cccnc2C(=O)N1c1cccc(-c2nc3ccccc3o2)c1` showed a z-score of -1.17.
The result for `Cc1nn(Cc2ccccc2Cl)c(C)c1NC(=O)CCCn1nc(C)c([N+](=O)[O-])c1C` reads -0.213; that for `CCOC(=O)c1c(C)[nH]c(N=Nc2ccccc2)c1C`, 0.322; that for `Cc1c(N=C/C=C2/N(C)c3ccccc3C2(C)C)c(=O)n(-c2ccccc2)n1C`, 0.846.
In the case of `N#Cc1c(N2C(=O)Nc3ccccc3N2O)sc2c1CCCCCC2` it was -0.322; in that of `Cc1cccc(C)c1NC(=O)CNc1ccccc1`, 0.211; in that of `Cc1ccc(/C=C2\OC(=O)c3ccccc32)cc1`, 0.353.
The result for `COc1ccc2cc(S(=O)(=O)N3CCN(C)CC3)ccc2c1` reads -0.125; that for `c1ccc(CSc2ncccn2)cc1`, 0.193.
Regarding `Cn1c(=O)c2c(nc(N3CCCCC3)n2C)n(C)c1=O`, the z-score was -0.4.
The result for `CCCc1nnc(NC(=O)CCC(=O)N2CCN(CCn3c(C)ccc3C)CC2)s1` reads -1.08; that for `O=C(COC(=O)c1cccc(NS(=O)(=O)/C=C/c2ccccc2)c1)Nc1ccccc1OC(F)F`, -0.425.
The result for `CCNC(=O)COc1ccc(C=O)cc1OC` reads 1.02.
In the case of `CN(Cc1ccccc1)c1ccc(C(=O)O)cc1[N+](=O)[O-]` it was -0.39; in that of `Cc1ccc(NC(=O)c2cnccn2)cc1S(=O)(=O)N(C)C`, -0.077.
For `COc1ccc(C2CC(=O)C=C(NNS(=O)(=O)c3ccc(C)cc3)C2)cc1` (stereo not given), the z-score is -0.0728.
The result for `Cc1ccc(-c2nc(CSCC(=O)N3CCCC3)c(C)o2)cc1` reads -0.311.
The result for `Cc1ccc(OCCCC(=O)N2CCOCC2)c(C)c1` reads -0.152.
As for `N=C1/C(=C/c2cccn2-c2ccc([N+](=O)[O-])cc2)C(=O)N=C2SC=CN12`, the z-score was -0.214.
In the case of `CCOC(=O)C1=C(N)OC2=C(C(=O)CCC2)C1c1ccco1` (stereo not given) it was -0.115; in that of `O=C(NCc1ccccn1)c1ccc(Cn2cc(Br)cn2)o1`, -0.188.
The result for `COC(=O)c1c(NC(=O)COC(=O)CNC(=O)c2ccco2)sc(C)c1C` reads -0.123; that for `CC(=Nc1cccc(O)c1)c1sc2ccccc2c1O`, -0.237.
In the case of `COCc1cc(C)nc(OCC(=O)N/N=C/c2ccc(-c3cccc([N+](=O)[O-])c3)o2)c1C#N` it was 0.0169; in that of `Cc1nn(-c2ccccc2)c(Cl)c1C(=O)Nc1nnc(C2CCCCC2)s1`, -0.261.
In the case of `O=C(CN1C(=O)/C(=C/c2ccccc2F)Oc2ccccc21)N1CCN(c2ccccn2)CC1`, the z-score is active: 6.44.
Consider `CCCn1nc(C(=O)OCC(=O)c2ccc3c(c2)NC(=O)CO3)c2ccccc2c1=O`, for which the z-score is -1.71.
In the case of `CCOC(=O)CSc1ncc(-c2cccc(Cl)c2)cn1` it was -0.245; in that of `COc1ccc(Nc2cc(=O)oc3ccccc23)cc1`, -0.0667.
The compound `Nn1c(Cc2cccc3ccccc23)nnc1SCc1c(Cl)cccc1Cl` gave a z-score of -0.392.
In the case of `Cc1cc(C(=O)N/N=C/c2cc(Br)ccc2OC(=O)c2ccccc2)n[nH]1` it was -0.0383.
The compound `COc1ccc(OC)c(C(=O)c2ccc(C(=O)c3cc(OC)ccc3OC)cc2)c1` showed a z-score of -0.0682.
The result for `Cc1nnc(N/N=C/c2cccc(OCc3ccc(Cl)c(Cl)c3)c2)n1N` reads -0.0567.
In the case of `CCCc1nc2ccccc2c(C(=O)OCC(=O)N2CCc3ccccc32)c1CC` it was -0.271.
In the case of `COc1ccc(/C=N/n2c(-c3cccs3)n[nH]c2=S)cc1` it was 2.46; in that of `CCOC(=O)c1sc2nccc(N(C)C)c2c1N=CN(C)C`, 0.08; in that of `CC(NC(=O)COC(=O)/C=C/c1ccc([N+](=O)[O-])cc1)c1ccccc1` (stereo not given), -0.366.
In turn, `CN1CC(c2ccccc2)C2(SC(=S)N(Cc3ccco3)C2=O)C12C(=O)Nc1ccccc12` (stereo not given) registered a z-score of 0.221.
The result for `COCCNC(=S)N1CCc2cc(OC)c(OC)cc2C1COc1cc(C)cc(C)c1` (stereo not given) reads -0.0886; that for `N#CC1=C(N)Oc2c(O)cc3ccccc3c2C1c1ccsc1` (stereo not given), -0.153; that for `Cc1sc2nc3ccc(NCc4ccco4)nn3c(=O)c2c1C`, -0.285.
In the case of `O=C(CCN1C(=O)COc2ccccc21)N1CCCCC1` it was -0.358; in that of `O=C(NCC1CCCO1)c1ccc(COCC(F)(F)C(F)F)cc1` (stereo not given), 0.432.
The result for `COCC(=O)Nc1ccc(C)c(Cl)c1` reads -2.21; that for `CC1(C)C2CCC1(C)C(OC(=O)CSc1nc(N)cc(=O)[nH]1)C2` (stereo not given), -0.246.
On to `CCn1c2ccccc2c2cc(C3C(C#N)=C(N)Oc4n[nH]c(COC)c43)ccc21` (stereo not given), for which the z-score was 0.229.
The result for `N#Cc1c2n(c(=S)n(-c3ccccn3)c1=O)CCCCC2` reads -0.927; that for `CCN(CC)C(=O)Oc1ccc2ccccc2c1Cl`, 0.21; that for `COC(=O)c1cc(OC)c(OC)cc1NC(=O)CSc1ccccc1`, -0.473.
The result for `Clc1ccccc1OCCCCn1ccnc1` reads 0.387; that for `CC(=O)c1sc(N/N=C\c2cccc(Br)c2)nc1C`, -0.166.
The result for `COCCn1c(-c2ccccc2)nc2oc3ccccc3c(=O)c2c1=O` reads -0.0618; that for `COc1ccc(Oc2nc3c(c(=O)n(C)c(=O)n3C)n2Cc2cccc(OC)c2)cc1`, -0.278; that for `Cc1ccc(Cn2nnc3c(=O)n(CC(=O)c4ccccc4)cnc32)cc1`, -0.376.
Take `O=C(NC1(C(F)(F)F)C(=O)Nc2c1c(=O)[nH]c(=O)n2Cc1ccccc1)c1ccc(Cl)cc1Cl` (stereo not given): the z-score was -0.114.
Compound `CC(C(=O)O)c1n[nH]c(=O)c2ccccc12` (stereo not given) displayed a z-score of -0.0879.
The result for `COCCN(C(=O)Cc1cccs1)C(C(=O)NCc1ccc(OC)cc1)c1ccccc1` (stereo not given) reads active: 3.95; that for `CCn1c(=O)n(CC)c2cc(S(=O)(=O)N3CCCCC3)c(C)cc21`, -0.0951; that for `CC1Cc2ccccc2N1C(=O)CSc1nc2ccccc2s1` (stereo not given), -0.167.
The result for `Cc1ccc2c(c1)[nH]c1c(N3CCN(Cc4ccccc4)CC3)ncnc12` reads -0.627; that for `CCCCn1c(-c2nonc2N)nc2ccccc21`, -0.145; that for `COc1ccccc1/C=C/C(=O)NC(=S)N(C)C1CCCCC1`, active: 4.46.
The result for `Cc1ccccc1CSCCNC(=O)CN(c1ccc2c(c1)OCO2)S(C)(=O)=O` reads -0.0056; that for `Cc1ccc(C(=O)CSc2nnc(-c3ccccc3N)n2C)cc1`, -0.079.
As to `CN1CCc2c(sc(/N=C/c3cccs3)c2C(N)=O)C1`, the z-score was determined as 0.21.
In the case of `COc1cc(/C=N/NC(=O)c2ccc(O)cc2)ccc1Oc1ccc([N+](=O)[O-])cn1` it was 0.226; in that of `Cc1ccccc1NC1=NC(=S)N(c2ccccc2)C12CCOC(C)(C)C2` (stereo not given), active: 12.6.
In the case of `Cc1nc2ccc(NC(=O)c3cccc(C(F)(F)F)c3)cc2o1` it was -0.499; in that of `C/C(=N\N=C\c1ccc(N(C)C)cc1)c1cccc([N+](=O)[O-])c1`, -0.145.
In the case of `CC(=O)NC1C(=O)N(CCc2ccccc2)c2ccc(Br)cc21` (stereo not given) it was 0.217.
Take `CC(=NCCN1CCN(C(=S)Nc2ccccc2)CC1)C1=C(O)CC(C)(C)CC1=O`: the z-score was -0.271.
The result for `CCOC(=O)c1c(NC(=O)CSc2nnc(-c3ccccc3)o2)sc(C(C)=O)c1C` reads -0.642; that for `CC(C)OCCCNC(=O)c1ccc(NC(=O)C2CCCO2)cc1` (stereo not given), 0.594.
In the case of `Cc1cc2ncn(C3CC(=O)N(C)C3=O)c2cc1C` (stereo not given) it was -0.121.
In the case of `COc1cc(C(c2sc3ncnn3c2O)N2CCN(c3ccccc3F)CC2)cc(OC)c1OC` (stereo not given) it was 0.0119.
With `C=CCN=C1SC(CC)C(=O)N1S(=O)(=O)c1ccc(C)cc1` (stereo not given), the z-score came out at 0.327.
The result for `COc1ccc(OC)c(/C=C/C(=O)OCC(=O)Nc2ccc3c(c2)OCCO3)c1` reads 0.113; that for `COc1c(Cl)cc(Cl)cc1C(=O)n1nc(C)cc1C`, -0.241; that for `Fc1cccc(-n2ncc(-c3nnnn3-c3ccccc3)c2C(F)(F)F)c1`, -0.403.
In the case of `CN(c1cccc(NC(=O)CN(c2ccc(C34CC5CC(CC(C5)C3)C4)cc2)S(C)(=O)=O)c1)S(C)(=O)=O` it was 0.173; in that of `O=C(O)C(Cc1ccccc1)N1C(=O)/C(=C/c2cccc3ccccc23)SC1=S` (stereo not given), -1.28.
Compound `O=C1CSC2(CCCCC2)N1CCO` returned a z-score of -0.0975.
The result for `CC1CCN(c2c(NCc3ccc(C(=O)N4CCc5ccccc54)cc3)c(=O)c2=O)CC1` reads 0.0125; that for `Cc1c(Br)c([N+](=O)[O-])nn1C(C)C(=O)Nc1c(C)n(C)n(-c2ccccc2)c1=O` (stereo not given), -0.137; that for `CC(=O)c1ccc(OCCCC(=O)OCc2nnc(-c3ccc(Cl)cc3)o2)cc1`, 0.677.
Compound `CCC1(C)N(O)C(C)(C)C(c2ccc(OC)cc2)=[N+]1[O-]` (stereo not given) came in with a z-score of -0.217.
In the case of `Cc1ccc(-n2c(O)c(/C=N/n3cnnc3)c3ccccc3c2=O)cc1` it was -0.447; in that of `Cc1ccc(SCC(=O)Nc2ccc3c(c2)OCCO3)cc1`, -0.155; in that of `CCn1c(SCC(=O)Nc2sc3c(c2C#N)CCC(C(C)(C)C)C3)nnc1-c1ccco1` (stereo not given), -0.0681.
In the case of `CCCCC(=O)Nc1cc(OCC)c(NC(=O)c2ccccc2[N+](=O)[O-])cc1OCC` it was -0.424.
